Laboratory results published in the supplement of paper PMC11876631.
Positions count from the first letter of the chain named. In names and notes the source's numbering stands. ± gives the standard deviation of the averaged measurements. Laboratory Escherichia coli strains with one amino-acid change in an essential protein, pooled on minimal glucose agar with carbenicillin or gentamicin at twice the control MIC (plus kanamycin and chloramphenicol for the plasmids), 48 h. Fold change of barcode share against drug-free plates; higher = less susceptible. Active = above 20 in both replicates (the paper's putatively resistant). '<' = one read or none on drug, '>' = one read or none on a drug-free plate. Shares are relative, so most strains fall below 1 when a few take over. Listed are strains with at least 15 reads on both drug-free plates, and hits; most hits rest on fewer reference reads. Replicate rank correlation about 0.5. Edits are read from barcodes.

B1: pssA V54P (protein)
chain: MLSKFKRNKHQQHLAQLPKISQSVDDVDFFYAPADFRETLLEKIASAKQRICIPALYLEQDDGGKGILNALYEAKRQRPELDVRVLVDWHRAQRGRIGAAASNTNADWYCRMAQENPGVDVPVYGVPINTREALGVLHFKGFIIDDSVLYSGASLNDVYLHQHDKYRYDRYHLIRNRKMSDIMFEWVTQNIMNGRGVNRLDDVNRPKSPEIKNDIRLFRQELRDAAYHFQGDADNDQLSVTPLVGLGKSSLLNKTIFHLMPCAEQKLTICTPYFNLPAILVRNIIQLLREGKKVEIIVGDKTANDFYIPEDEPFKIIGALPYLYEINLRRFLSRLQYYVNTDQLVVRLWKDDDNTYHLKGMWVDDKWMLITGNNLNPRAWRLDLENAILIHDPQLELAPQREKELELIREHTTIVKHYRDLQSIADYPVKVRKLIRRLRRIRIDRLISRIL
B2: purA L53A (protein)
chain: MGNNVVVLGTQWGDEGKGKIVDLLTERAKYVVRYQGGHNAGHTLVINGEKTVAHLIPSGILRENVTSIIGNGVVLSPAALMKEMKELEDRGIPVRERLLLSEACPLILDYHVALDNAREKARGAKAIGTTGRGIGPAYEDKVARRGLRVGDLFDKETFAEKLKEVMEYHNFQLVNYYKAEAVDYQKVLDDTMAVADILTSMVVDVSDLLDQARQRGDFVMFEGAQGTLLDIDHGTYPYVTSSNTTAGGVATGSGLGPRYVDYVLGILKAYSTRVGAGPFPTELFDETGEFLCKQGNEFGATTGRRRRTGWLDTVAVRRAVQLNSLSGFCLTKLDVLDGLKEVKLCVAYRMPDGREVTTTPLAADDWKGVEPIYETMPGWSESTFGVKDRSGLPQAALNYIKRIEELTGVPIDIISTGPDRTETMILRDPFDA
B3: purA L198A (protein)
chain: B2 chain with A53L, L198A
B4: purA I414Q (protein)
chain: B2 chain with A53L, I414Q
B5: purA I414W (protein)
chain: B2 chain with A53L, I414W
B6: purA L264Q (protein)
chain: B2 chain with A53L, L264Q
B7: purA L53Q (protein)
chain: B2 chain with A53Q
B8: purA L264A (protein)
chain: B2 chain with A53L, L264A
B9: purA L53W (protein)
chain: B2 chain with A53W
B10: purA L264W (protein)
chain: B2 chain with A53L, L264W
B11: purA I414A (protein)
chain: B2 chain with A53L, I414A

Target: Escherichia coli (laboratory strain)
Assay: barcode share on antibiotic plates over drug-free plates; higher = less susceptible
Method: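 A pool of E. coli strains, each edited to carry one amino-acid change in an essential protein, was grown for 48 h on minimal glucose agar with or without antibiotic; strain barcodes were sequenced; mean of two replicates.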

[1] = antibiotic: carbenicillin, 2× MIC (3.1 µg/mL)
[2] = antibiotic: gentamicin, 2× MIC (MIC 0.45 µg/mL)

Protein	fold change of barcode share [1]	fold change of barcode share [2]
B1	0.285 ± 0.16	< 0.0152
B2	0.484 ± 0.23	< 0.0175
B3	0.821 ± 0.4	0.00968 ± 0.0036
B4	0.411 ± 0.084	< 0.00974
B5	0.319 ± 0.16	< 0.00953
B6	0.304 ± 0.062	< 0.009
B7	0.506 ± 0.044	< 0.0115
B8	0.235 ± 0.16	< 0.017
B9	> 154 [active]	–
B10	0.321 ± 0.19	< 0.00784
B11	0.249 ± 0.028	< 0.00889
